The values below come from article PMC6459531.

Results are given in words; binding and its absence hold for the method and conditions named. Some entries that bind do so weakly or less than the wild type.

Common to all, as to assay: two-hybrid; Matchmaker Two-Hybrid System 3 (Clontech); pGBKT7 (Gal4-BD) and pGAD424 (Gal4-AD) fusions co-introduced into S. cerevisiae AH109; interaction read as growth on SC-LWH (no histidine), 3-4 days at 30 °C
Assay [1] concerns the target T1, Mal3 (135–308) (S. pombe) (UniProt Q10113).
T1 sequence: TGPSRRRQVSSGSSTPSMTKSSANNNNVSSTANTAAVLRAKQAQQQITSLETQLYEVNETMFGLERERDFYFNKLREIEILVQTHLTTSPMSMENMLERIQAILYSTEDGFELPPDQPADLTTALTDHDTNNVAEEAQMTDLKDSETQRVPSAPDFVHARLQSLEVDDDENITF

Another assay concerns the target T2, Mal3 (1–241) (S. pombe) (UniProt Q10113).
T2 sequence: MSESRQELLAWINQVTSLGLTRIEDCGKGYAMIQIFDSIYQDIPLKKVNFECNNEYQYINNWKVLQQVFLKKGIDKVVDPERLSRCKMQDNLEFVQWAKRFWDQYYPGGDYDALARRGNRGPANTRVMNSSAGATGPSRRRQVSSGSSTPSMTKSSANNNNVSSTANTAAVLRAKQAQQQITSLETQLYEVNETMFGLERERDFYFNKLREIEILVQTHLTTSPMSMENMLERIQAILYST

Assay [2] addresses T3, Mal3 (1–308: full-length) (S. pombe) (UniProt Q10113).
T3 sequence: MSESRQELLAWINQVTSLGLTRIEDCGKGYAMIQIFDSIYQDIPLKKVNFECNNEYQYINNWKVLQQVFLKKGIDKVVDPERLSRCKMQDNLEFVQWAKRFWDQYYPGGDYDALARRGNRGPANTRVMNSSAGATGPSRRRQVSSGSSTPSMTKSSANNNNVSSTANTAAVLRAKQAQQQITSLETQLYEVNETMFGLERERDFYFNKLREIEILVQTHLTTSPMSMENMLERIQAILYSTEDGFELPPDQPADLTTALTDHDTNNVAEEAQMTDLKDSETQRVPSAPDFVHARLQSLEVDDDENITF

A further assay has as its target Mal3 (1–143) (S. pombe) (UniProt Q10113).
A further assay has as its target T4, Tip1 (S. pombe) (UniProt P79065).
T4 sequence: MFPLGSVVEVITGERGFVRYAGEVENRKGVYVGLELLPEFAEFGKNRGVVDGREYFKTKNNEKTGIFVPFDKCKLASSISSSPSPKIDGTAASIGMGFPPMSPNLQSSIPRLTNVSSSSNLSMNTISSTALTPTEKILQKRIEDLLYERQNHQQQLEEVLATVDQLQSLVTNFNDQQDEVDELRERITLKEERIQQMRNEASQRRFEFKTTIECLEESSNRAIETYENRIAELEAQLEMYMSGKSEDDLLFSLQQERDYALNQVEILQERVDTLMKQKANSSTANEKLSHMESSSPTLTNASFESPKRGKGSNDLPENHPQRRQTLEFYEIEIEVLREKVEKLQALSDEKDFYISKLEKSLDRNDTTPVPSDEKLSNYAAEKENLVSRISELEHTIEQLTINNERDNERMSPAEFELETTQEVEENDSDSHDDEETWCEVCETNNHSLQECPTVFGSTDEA

The target of the next assay is T5, Mal3 (1–218) (S. pombe) (UniProt Q10113).
T5 sequence: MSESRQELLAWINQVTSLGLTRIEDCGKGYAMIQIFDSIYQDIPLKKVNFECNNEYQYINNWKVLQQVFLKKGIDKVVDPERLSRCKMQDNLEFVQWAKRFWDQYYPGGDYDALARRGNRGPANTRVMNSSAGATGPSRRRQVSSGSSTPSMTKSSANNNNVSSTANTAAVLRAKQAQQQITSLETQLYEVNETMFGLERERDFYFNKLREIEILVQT

B1: Mal3 (1–218) (domain or fragment, UniProt Q10113 1-218)
chain: T5 sequence
For B1, the binding result (in assay [1]; with Mal3 (1–241) (S. pombe); in assay [2]) was “binds” throughout.

B2: Mal3 (135–308) (domain or fragment, UniProt Q10113 135-308)
chain: T1 sequence
As to B2, the binding result in assay [2] is given as “binds”.

B3: Mal3 (1–241) (domain or fragment, UniProt Q10113 1-241)
chain: T2 sequence
B3: the binding entry in assay [1] and in assay [2] was “binds” each time.

B4: Mal3 (1–143) (domain or fragment, UniProt Q10113 1-143)
chain: MSESRQELLAWINQVTSLGLTRIEDCGKGYAMIQIFDSIYQDIPLKKVNFECNNEYQYINNWKVLQQVFLKKGIDKVVDPERLSRCKMQDNLEFVQWAKRFWDQYYPGGDYDALARRGNRGPANTRVMNSSAGATGPSRRRQV
Regarding B4, the binding result with Mal3 (1–143) (S. pombe) and with Tip1 (S. pombe) was “no binding” in each case.

B5: Mal3 (1–308: full-length) (protein, UniProt Q10113 1-308)
chain: T3 sequence
For B5, the binding result with Tip1 (S. pombe) is given as “binds”.

B6: Mal3 (1–197) (domain or fragment, UniProt Q10113 1-197)
chain: MSESRQELLAWINQVTSLGLTRIEDCGKGYAMIQIFDSIYQDIPLKKVNFECNNEYQYINNWKVLQQVFLKKGIDKVVDPERLSRCKMQDNLEFVQWAKRFWDQYYPGGDYDALARRGNRGPANTRVMNSSAGATGPSRRRQVSSGSSTPSMTKSSANNNNVSSTANTAAVLRAKQAQQQITSLETQLYEVNETMFG
As for B6, the binding entry (in assay [1]; in the assay with Mal3 (1–218) (S. pombe); in the assay with Mal3 (1–241) (S. pombe); in assay [2]) was “binds” in each case.
